# Data from the supplement of paper PMC8728848.
# Some of the results follow.
# B1: Gal 8 (Mus musculus), Q9JL15 (protein)
# chain: MGGSHHHHHHGMASMLSLNNLQNIIYNPIIPYVGTITEQLKPGSLIVIRGHVPKDSERFQVDFQLGNSLKPRADVAFHFNPRFKRSSCIVCNTLTQEKWGWEEITYDMPFRKEKSFEIVFMVLKNKFQVAVNGRHVLLYAHRISPEQIDTVGIYGKVNIHSIGFRFSSASALPHTLGDLQSMETSALGLTQINRENIQKPGKLQLSLPFEARLNASMGPGRTVVIKGEVNTNARSFNVDLVAGKTRDIALHLNPRLNVKAFVRNSFLQDAWGEEERNITCFPFSSGMYFEMIIYCDVREFKVAINGVHSLEYKHRFKDLSSIDTLSVDGDIRLLDVRSW
# Key:
# Test in all cases: glycan array binding signal (z-score within array); higher = stronger binding
# Details in all cases: glycan notation: IUPAC condensed, linker removed
# [1] = target: Neu5Ac(a2-6)Gal(b1-4)GlcNAc(b1-2)Man(a1-3)[GlcNAc(b1-4)][Neu5Ac(a2-6)Gal(b1-4)GlcNAc(b1-2)Man(a1-6)]Man(b1-4)GlcNAc(b1-4)GlcNAc
# How it was run: (§1)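 From the Consortium for Functional Glycomics database, 3228 arrays were curated, keeping only those whose protein sequence was available. Binding is given as a within-array Z-score averaged across arrays sharing a protein sequence and across linkers. Negative Z-scores can be read as non-binding.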
# [2] = target: Neu5Ac(a2-6)Gal(b1-4)GlcNAc(b1-2)Man(a1-3)[Man(a1-6)]Man(b1-4)GlcNAc(b1-4)GlcNAc
# How it was run: as §1
# [3] = target: Neu5Ac(a2-6)Gal(b1-4)GlcNAc(b1-2)Man(a1-3)[Neu5Ac(a2-3)Gal(b1-4)GlcNAc(b1-2)Man(a1-6)]Man(b1-4)GlcNAc(b1-4)GlcNAc
# How it was run: as §1
# [4] = target: Neu5Ac(a2-6)Gal(b1-4)GlcNAc(b1-2)Man(a1-3)[Neu5Ac(a2-6)Gal(b1-4)GlcNAc(b1-2)Man(a1-6)]Man(b1-4)GlcNAc(b1-4)GlcNAc
# How it was run: as §1
# [5] = target: Neu5Ac(a2-6)Gal(b1-4)GlcNAc(b1-2)Man(a1-3)[Neu5Ac(a2-6)Gal(b1-4)GlcNAc(b1-2)Man(a1-6)]Man(b1-4)GlcNAc(b1-4)[Fuc(a1-6)]GlcNAc
# How it was run: as §1
# [6] = target: Neu5Ac(a2-6)Gal(b1-4)GlcNAc(b1-2)Man(a1-6)Man(b1-4)GlcNAc(b1-4)GlcNAc
# How it was run: as §1
# [7] = target: Neu5Ac(a2-6)Gal(b1-4)GlcNAc(b1-2)Man(a1-6)[Gal(b1-4)GlcNAc(b1-2)Man(a1-3)]Man(b1-4)GlcNAc(b1-4)GlcNAc
# How it was run: as §1
# [8] = target: Neu5Ac(a2-6)Gal(b1-4)GlcNAc(b1-2)Man(a1-6)[GlcNAc(b1-2)Man(a1-3)]Man(b1-4)GlcNAc(b1-4)GlcNAc
# How it was run: as §1
# [9] = target: Neu5Ac(a2-6)Gal(b1-4)GlcNAc(b1-2)Man(a1-6)[Man(a1-3)]Man(b1-4)GlcNAc(b1-4)GlcNAc
# How it was run: as §1
# [10] = target: Neu5Ac(a2-6)Gal(b1-4)GlcNAc(b1-2)[Neu5Ac(a2-6)Gal(b1-4)GlcNAc(b1-4)]Man(a1-3)[GlcNAc(b1-4)][Neu5Ac(a2-6)Gal(b1-4)GlcNAc(b1-2)[Neu5Ac(a2-6)Gal(b1-4)GlcNAc(b1-6)]Man(a1-6)]Man(b1-4)GlcNAc(b1-4)GlcNAc
# How it was run: as §1
# [11] = target: Neu5Ac(a2-6)Gal(b1-4)GlcNAc(b1-2)[Neu5Ac(a2-6)Gal(b1-4)GlcNAc(b1-4)]Man(a1-3)[GlcNAc(b1-4)][Neu5Ac(a2-6)Gal(b1-4)GlcNAc(b1-4)Man(a1-6)]Man(b1-4)GlcNAc(b1-4)GlcNAc
# How it was run: as §1
# [12] = target: Neu5Ac(a2-6)Gal(b1-4)GlcNAc(b1-2)[Neu5Ac(a2-6)Gal(b1-4)GlcNAc(b1-6)]Man(a1-6)[Neu5Ac(a2-6)Gal(b1-4)GlcNAc(b1-2)Man(a1-3)][GlcNAc(b1-4)]Man(b1-4)GlcNAc(b1-4)GlcNAc
# How it was run: as §1
# [13] = target: Neu5Ac(a2-6)Gal(b1-4)GlcNAc(b1-3)Gal(b1-3)GlcNAc
# How it was run: as §1
# [14] = target: Neu5Ac(a2-6)Gal(b1-4)GlcNAc(b1-3)Gal(b1-4)GlcNAc
# How it was run: as §1
# [15] = target: Neu5Ac(a2-6)Gal(b1-4)GlcNAc(b1-3)Gal(b1-4)GlcNAc(b1-2)Man(a1-3)[Neu5Ac(a2-6)Gal(b1-4)GlcNAc(b1-3)Gal(b1-4)GlcNAc(b1-2)Man(a1-6)]GalNAc
# How it was run: as §1
# [16] = target: Neu5Ac(a2-6)Gal(b1-4)GlcNAc(b1-3)Gal(b1-4)GlcNAc(b1-3)Gal(b1-4)GlcNAc
# How it was run: as §1
# [17] = target: Neu5Ac(a2-6)Gal(b1-4)GlcNAc(b1-3)Gal(b1-4)GlcNAc(b1-3)Gal(b1-4)GlcNAc(b1-2)Man(a1-3)[Neu5Ac(a2-6)Gal(b1-4)GlcNAc(b1-3)Gal(b1-4)GlcNAc(b1-3)Gal(b1-4)GlcNAc(b1-2)Man(a1-6)]GalNAc
# How it was run: as §1
# [18] = target: Neu5Ac(a2-6)Gal(b1-4)GlcNAc(b1-3)Gal(b1-4)GlcNAc(b1-3)GalNAc
# How it was run: as §1
# [19] = target: Neu5Ac(a2-6)Gal(b1-4)GlcNAc(b1-3)Gal(b1-4)GlcNAc(b1-3)[Neu5Ac(a2-6)Gal(b1-4)GlcNAc(b1-3)Gal(b1-4)GlcNAc(b1-6)]GalNAc
# How it was run: as §1
# [20] = target: Neu5Ac(a2-6)Gal(b1-4)GlcNAc(b1-3)Gal(b1-4)GlcNAc(b1-6)[Gal(b1-3)]GalNAc
# How it was run: as §1
# [21] = target: Neu5Ac(a2-6)Gal(b1-4)GlcNAc(b1-3)Gal(b1-4)[Fuc(a1-3)]GlcNAc(b1-3)Gal(b1-4)[Fuc(a1-3)]GlcNAc
# How it was run: as §1
# [22] = target: Neu5Ac(a2-6)Gal(b1-4)GlcNAc(b1-3)GalNAc
# How it was run: as §1
# [23] = target: Neu5Ac(a2-6)Gal(b1-4)GlcNAc(b1-3)[Neu5Ac(a2-6)Gal(b1-4)GlcNAc(b1-6)]GalNAc
# How it was run: as §1
# [24] = target: Neu5Ac(a2-6)Gal(b1-4)GlcNAc(b1-6)GalNAc
# How it was run: as §1
# [25] = target: Neu5Ac(a2-6)Gal(b1-4)GlcNAc(b1-6)[Gal(b1-3)GlcNAc(b1-3)]Gal(b1-4)Glc
# How it was run: as §1
# [26] = target: Neu5Ac(a2-6)Gal(b1-4)GlcNAc(b1-6)[Gal(b1-3)]GalNAc
# How it was run: as §1
# [27] = target: Neu5Ac(a2-6)Gal(b1-4)GlcNAc6S
# How it was run: as §1
# [28] = target: Neu5Ac(a2-6)GalNAc
# How it was run: as §1
# [29] = target: Neu5Ac(a2-6)GalNAc(b1-4)GlcNAc
# How it was run: as §1
# [30] = target: Neu5Ac(a2-6)GalNAc(b1-4)GlcNAc6S
# How it was run: as §1
# [31] = target: Neu5Ac(a2-6)GlcNAc(b1-4)GlcNAc
# How it was run: as §1
binder,measurement,setting,value
B1,glycan array binding signal (z-score),[1],-0.541
same,glycan array binding signal (z-score),[2],-0.525
same,glycan array binding signal (z-score),[3],-0.54
same,glycan array binding signal (z-score),[4],-0.448
same,glycan array binding signal (z-score),[5],-0.514
same,glycan array binding signal (z-score),[6],-0.53
same,glycan array binding signal (z-score),[7],0.013
same,glycan array binding signal (z-score),[8],-0.549
same,glycan array binding signal (z-score),[9],-0.543
same,glycan array binding signal (z-score),[10],-0.602
same,glycan array binding signal (z-score),[11],-0.549
same,glycan array binding signal (z-score),[12],-0.539
same,glycan array binding signal (z-score),[13],0.159
same,glycan array binding signal (z-score),[14],-0.168
same,glycan array binding signal (z-score),[15],0.465
same,glycan array binding signal (z-score),[16],0.078
same,glycan array binding signal (z-score),[17],0.157
same,glycan array binding signal (z-score),[18],-0.1
same,glycan array binding signal (z-score),[19],-0.311
same,glycan array binding signal (z-score),[20],0.11
same,glycan array binding signal (z-score),[21],-0.516
same,glycan array binding signal (z-score),[22],-0.531
same,glycan array binding signal (z-score),[23],-0.533
same,glycan array binding signal (z-score),[24],-0.491
same,glycan array binding signal (z-score),[25],0.161
same,glycan array binding signal (z-score),[26],0.234
same,glycan array binding signal (z-score),[27],-0.549
same,glycan array binding signal (z-score),[28],-0.536
same,glycan array binding signal (z-score),[29],-0.566
same,glycan array binding signal (z-score),[30],-0.539
same,glycan array binding signal (z-score),[31],-0.555
